Hit rate of the full screen: of about 7,900 compounds, about 400 (5.1%) showed an effect of 50% or more. Some of the results follow.

The target of the experiment is Parkinson's disease protein 7 (PARK7/DJ1) (human, UniProt Q99497). The experiment can be described thus: primary screen, percent inhibition; read as competition with a fluorescent probe by fluorescence polarization; higher = more effect of the substance. The note with it: 100 µM. As for the experimental part: The screen was conducted using the conditions as described above in 1536-well plates (Corning 3724) with a reaction volume of 8 μL per well. The compound library containing 7887 covalent fragments was purchased at Enamine Ltd. and received as 100 mM DMSO stocks in 384 well LDV Echo plates (Labcyte LP-0200). Stock solutions of 0.26 μM PARK7 and 80 nM JYQ-107 were prepared. Using a Labcyte Echo550 acoustic dispenser, 8 nL of the DMSO stock solution of the library compounds was transferred from the source plates into the empty 1536-well screening plates to obtain a 100 μM final compound concentration. Next, PARK7 (6 μL, final concentration 0.2 μM) was dispensed using a Biotek MultiflowFX liquid dispenser and incubated for 2 h, followed by dispensing the probe JYQ-107 (2 μL, final concentration 20 nM). After 2 h incubation, the FP signal was recorded on a BMG Labtech PHERAstar plate reader (λex/em 480/520 nm). The relative loss of FP signal compared with reference controls was used to calculate the remaining enzyme activity.
Parkinson's disease protein 7 (PARK7/DJ1), sequence (Q99497 whole entry, looked up, the tested form may be a part): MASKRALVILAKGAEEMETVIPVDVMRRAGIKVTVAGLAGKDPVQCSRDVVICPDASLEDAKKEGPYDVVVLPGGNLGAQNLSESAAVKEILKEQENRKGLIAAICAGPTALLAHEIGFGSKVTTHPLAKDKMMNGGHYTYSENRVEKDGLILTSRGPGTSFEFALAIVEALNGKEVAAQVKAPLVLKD
Regarding `CC=C(C#N)c1ccc2c(c1)OCO2`, the Inhibition % is given as 12.1%.

As for `N#Cc1ccccc1NC(=O)CCl`, the Inhibition % turned out to be 10%.

As for `c1ccc(CN2CCC3(CO3)C2)cc1` (stereo not shown), the Inhibition % was 6.12%.

On to `CC1c2cccn2CCN1C(=O)n1ccnc1` (stereo not shown), for which the Inhibition % was 22%.

For the compound `Cl.ClCCCN1CCOCC1`, the Inhibition % is 3.24%.

In the case of `Cn1c(SC2CCOC2=O)nc2ccccc21` (stereo not shown), the Inhibition % was 12%.

For the compound `COC(OC)c1ccnc(SC)n1`, the Inhibition % is listed as 10.2%.

`C=CC(=O)Nc1c(C)nn(C)c1N1CCC1`: the Inhibition % came to 87.1%.

`N#Cc1nccn1CC=Cc1ccccc1`: the Inhibition % was determined as 12.2%.

In the case of `N#Cc1ncn(Cc2ccc(Cl)cc2)n1`, the Inhibition % was 7.37%.

As to `O=C(CCl)NC(=O)NCc1cccs1`, the Inhibition % came to 9.23%.

On to `Cc1cccc(NC2CCN(C3CC(C)OC3=O)CC2)c1` (stereo not shown), for which the Inhibition % came to 4.3%.

With `C=CC(=O)N1C2CCC1CC(CCF)C2` (stereo not shown), the Inhibition % came out at 5.32%.

Take `COC(=O)c1cc(O)cc(B2OC(C)(C)C(C)(C)O2)c1`: the Inhibition % worked out at 13.2%.

Consider `C=CC(=O)Nc1cnn(CC2CC2)c1`, for which the Inhibition % stood at 7.8%.

For the compound `O=C(O)c1csc(NS(=O)(=O)C=Cc2ccccc2)c1`, the Inhibition % is given as 62.5%.

`CCOc1cc(C)c(Cl)cc1S(=O)(=O)n1ccnc1C`: the Inhibition % turned out to be 5.5%.

As to `CC1(C)CCCCN(c2cnc(C#N)cn2)C1`, the Inhibition % was determined as 7.16%.

Take `O=C1SCCN1CN1CCC(c2ccccc2)CC1`: the Inhibition % came to 11.7%.

For `CN1CCC(CCl)CC1.Cl`, the Inhibition % worked out at 7.56%.

With `Cc1ncc(C=CC(=O)N2CCNCC2C)s1.Cl.Cl` (stereo not shown), the Inhibition % stood at 13.7%.

`C=CC(=O)N1CCN(C(=O)C=C)CC1`: the Inhibition % was 4.56%.

With `C=CC(=O)N1CCCCC1c1nccs1` (stereo not shown), the Inhibition % is on record as 13.3%.

For the compound `O=c1ccn(C2CC2)c(S)n1`, the Inhibition % is listed as 1.51%.

On to `C=CC(=O)N1CCN(C)C(=O)C1CC` (stereo not shown), for which the Inhibition % is recorded as 1.56%.

As for `C=CC(=O)NC1CC2C=CC1CC2` (stereo not shown), the Inhibition % stood at 3.57%.

As to `N#Cc1ccc(Cl)nn1`, the Inhibition % turned out to be 8.15%.

On to `Cc1ccc(OCCn2cnc(C#N)n2)cc1`, for which the Inhibition % was 2.66%.

For `CCOc1cc(C)c(C)cc1S(=O)(=O)n1nc(C)cc1C`, the Inhibition % turned out to be 3.57%.

With `Cc1nccn1CC1CCCN1c1ccc(C#N)nc1` (stereo not shown), the Inhibition % worked out at 0.293%.

Take `C=CC(=O)N(Cc1nc(-c2cccnc2)no1)C(C)C`: the Inhibition % is recorded as 22.6%.

Consider `N#Cc1ncn(CC(=O)N2CCCC2c2cccs2)n1` (stereo not shown), for which the Inhibition % is on record as 5.17%.

As to `CC(C)(C)Sc1ccc(C#N)nc1`, the Inhibition % stood at 2.96%.

On to `Cc1ccc(C=C(C#N)C(=O)NCc2ccco2)o1`, for which the Inhibition % is reported as 2.77%.

`Cc1ccccc1CCNC(=O)n1ccnc1`: the Inhibition % amounted to 101%.

With `O=C(CCl)Nc1ccc2c(c1)C(=O)c1ccccc1C2=O`, the Inhibition % is on record as 2.08%.

Turning to `Cn1cc(C=C(C#N)c2nc3ccccc3n2C)cn1`, the Inhibition % is 2.9%.

Take `Cc1nc(C)c(Cn2c(-c3cccnc3)noc2=O)s1`: the Inhibition % turned out to be 27.6%.

As to `O=S(=O)(F)c1ccc2cn[nH]c2c1`, the Inhibition % is 72.5%.

On to `CC1(C)CN(c2ccc(C#N)nc2)CCS1`, for which the Inhibition % worked out at 9.73%.

On to `C=CC(=O)NC1CCN(c2cccnn2)CC1`, for which the Inhibition % was 14.8%.

With `O=S(=O)(C=Cc1ccc(Cl)cc1)N1CCCCC1`, the Inhibition % is listed as 5.97%.

On to `C=CC(=O)NCc1cccnc1N1CCCC1`, for which the Inhibition % was found to be 9.31%.

For `N#CC(=Cc1ccccc1)C(=O)N1CCC(C(N)=O)CC1`, the Inhibition % came out at 9.67%.

In the case of `O=C1CC(c2cccnc2)=NO1`, the Inhibition % was 6.84%.

Consider `Cl.Cl.NC1CCCN(C(=O)C=Cc2ccccn2)C1` (stereo not shown), for which the Inhibition % was 12.6%.

With `O=C(CCl)Nc1nc(-c2cc(F)ccc2F)cs1`, the Inhibition % was found to be 9.23%.

For `CC(C)(C)c1ccc(S(=O)(=O)N[C@H]2CCOC2=O)cc1`, the Inhibition % is recorded as 8.44%.

For the compound `Cl.ClCCn1ccnc1`, the Inhibition % came out at 2.86%.

In the case of `O=C(CCl)NCc1ccc(Cl)cc1`, the Inhibition % was 2.75%.

On to `COc1cccc2c1CCC2Nc1ccc(C#N)nc1` (stereo not shown), for which the Inhibition % is reported as 12.3%.

With `C=CC(=O)N[C@H]1COC[C@H]1n1ccnn1`, the Inhibition % is listed as 11.8%.

As to `CCOC(=O)C1CCCN(C(=O)CCl)C1` (stereo not shown), the Inhibition % stood at 74.4%.

`Cl.O=C(Oc1ccccc1)N1CCCNCC1`: the Inhibition % stood at 22.2%.

As for `O=C1CCc2cc(OS(=O)(=O)c3ccccc3)ccc2N1`, the Inhibition % turned out to be 1.67%.

With `CC1CC(Sc2nnnn2C2CCCC2)C(=O)O1` (stereo not shown), the Inhibition % worked out at 5.08%.

With `O=C1CC(c2ccc(Cl)cc2)N1` (stereo not shown), the Inhibition % was found to be 4.44%.

As to `C=CC(=O)N1CCCCC1c1ccco1` (stereo not shown), the Inhibition % was 8.17%.

`C=CC(=O)N1CCN(S(=O)(=O)CC)C[C@H]1C`: the Inhibition % stood at 12.6%.

As to `Cc1nc(S)c2cccnc2n1`, the Inhibition % was found to be 2.7%.

Regarding `C=CC(=O)NC1CCCC2OCCC12` (stereo not shown), the Inhibition % turned out to be 8.57%.

`CS(=O)(=O)OCCC1CCCO1` (stereo not shown): the Inhibition % worked out at 29.3%.

With `O=C(CCl)N1CCN(S(=O)(=O)c2ccc(F)cc2)CC1`, the Inhibition % stood at 14.2%.

Regarding `O=C(NC1CCN(C2CCOC2=O)CC1)c1ccccc1` (stereo not shown), the Inhibition % was 9.18%.
